# Assay results reported in PubChem BioAssay AID485313 (National Center for Advancing Translational Sciences (NCATS), 2010).
# In all, about 320,000 compounds went through this assay and about 7,600 (2.4%) were called active. This list was built around the results that the source calls inconclusive (neither active nor inactive); the mix of calls is not that of the screen. Calls follow the shape of the dose curve; as a rule, active = well fitted activation curve with a large enough effect; inconclusive = small, poorly fitted or top-dose-only effect; inactive = no such curve, though single readings can be large or run the other way. Potencies of inconclusive entries are left out as doubtful fits.
# Assay: qHTS Assay for NPC1 Promoter Activators; also: nearly all actives have a fitted effect of over 60% in size;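 as to activation: reporter is driven by a mutant NPC1 promoter; % of control where 0% means no effect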
# Details: Huh7 NPC1 promoter luciferase reporter, 24 h; series mostly up to 9.22 µM; activation: at the top concentration
# In short: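 Compounds in DMSO were transferred onto Huh7 NPC1-luciferase reporter cells pre-incubated 2 h; after 24 h at 37 °C, Amplite reagent was dispensed and luminescence recorded 10 min later.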
# Potency is read from the fitted curve at half-maximal effect; tags tell the direction and shape of the fitted curve.
Compound,activation,Potency
CC(=O)Nc1ccc(S(=O)(=O)Nc2nc3ccc(C)cc3s2)cc1,inactive: -4.31%,–
O=c1c2sccc2nc(SCc2cc(=O)n3cc(Cl)ccc3n2)n1Cc1ccccn1,–,"inconclusive [activator, single point]"
Fc1cc(F)cc(NC(=S)N2CCC(c3ccccc3)C2)c1 (stereo not given),–,"inconclusive [activator, partial curve]"
Nc1c(C(=O)Nc2ccc(F)cc2)sc(=S)n1-c1ccccc1F,–,"inconclusive [activator, single point]"
COc1cccc(Oc2nnnn2-c2ccccc2)c1,–,"inconclusive [activator, single point]"
CCCN1C(=O)c2ccc(C(=O)Nc3ccc4c(c3)OCO4)cc2C1=O,–,"inconclusive [activator, partial curve]"
COCCSc1ncnc2c1oc1nc3c(cc12)COC(C)(C)C3,–,"inconclusive [activator, single point]"
CCS(=O)(=O)Nc1cc(-c2nc3cccnc3s2)ccc1C,–,active: 3.55 µM
CC(=O)C(C)Oc1ccc2c3c(c(=O)oc2c1)CCCCC3 (stereo not given),–,"inconclusive [activator, partial curve]"
Cc1cc(OCC(=O)NC(C)c2ccccc2)ccc1[N+](=O)[O-] (stereo not given),inactive: -6.45%,–
COc1nc(NC(=O)c2ccc(F)cc2)nc(OC)c1-c1ccccc1,inactive: 1.68%,–
O=C(Nc1ccc2c(c1)ncn2C1CCCCC1)c1ccco1,–,"inconclusive [activator, single point]"
COCCCNC(=O)COc1ccc(Br)cc1Cl,–,"inconclusive [activator, single point]"
CC(C)(C)Cc1nnc(NC(=O)c2ccco2)s1,–,"inconclusive [activator, single point]"
COc1ccc(C(=O)/C=C/Nc2ccc(C)cn2)cc1OC,–,active: 2.24 µM
COc1ccc(OCc2cc(C(=O)NCc3nc(C)cs3)no2)c(Cl)c1,–,"inconclusive [activator, partial curve]"
COc1ccc(/C(N)=N/OC(=O)C2CCCCC2)cc1OC,–,"inconclusive [activator, partial curve]"
COc1ccc(NC(=O)N(Cc2cc3ccc(OC)cc3[nH]c2=O)CC2CCCO2)cc1 (stereo not given),inactive: -15.3%,–
Cc1csc2nc(CSc3nc4ccccc4o3)cn12,–,active: 3.98 µM
CN(C)c1ccc(/C=C(\C#N)c2ccccn2)cc1,–,active: 0.447 µM
Cc1cccc(C(=O)OCC(=O)c2c(C)[nH]c3ccccc23)c1O,–,"inconclusive [activator, single point]"
CCC(=O)NCCc1nc2cc(NC(=O)c3cccc([N+](=O)[O-])c3)ccc2n1C,–,"inconclusive [activator, partial curve]"
Cn1c(=O)n(CCc2ccccc2)c(=O)c2c1nc1n2CCCN1CCc1ccccc1,inactive: -2.78%,–
CCN=c1scc(-c2ccccc2)n1/N=C/c1ccccn1,–,active: 0.355 µM
CCOc1ccc(C(C)NC(=O)c2cc(=O)[nH]c3ccccc23)cc1OCC (stereo not given),inactive: -8.95%,–

Compound,activation,Potency
CC1CCN(c2ccc(NC(=O)c3ccc(Br)o3)cc2)CC1,–,active: 1 µM
COc1ccc2c(c1)OC/C(=C/c1cccs1)C2=O,–,"inconclusive [activator, single point]"
COc1ccc(OCc2cc(C(=O)N3CCN(CC4CC4)CC3)no2)c(Cl)c1,–,"inconclusive [activator, partial curve]"
COc1ccc(Cl)cc1C(=O)Nn1c(-c2cccs2)nc2ccccc2c1=O,inactive: -0.164%,–
Cc1cccc(N(C(=O)c2ccc(Cl)cc2)C2CS(=O)(=O)CC2OC(=O)c2ccc(Cl)cc2)c1 (stereo not given),–,"inconclusive [activator, single point]"
O=C(Nc1ccc(F)cc1F)c1cc(-c2ccc3c(c2)OCO3)on1,–,"inconclusive [activator, partial curve]"
C[C@@]12CC[C@H]3OC(=O)C=C3C1CC[C@@]13CC(CCC12)[C@](CO)(O[C@H]1O[C@H](CO)[C@@H](O)[C@H](O)[C@H]1O)C3 (stereo not given in full),inactive: 1.39%,–
COc1ccccc1N1CCN(/N=C/c2ccc([N+](=O)[O-])cc2)CC1,–,"inconclusive [activator, partial curve]"
O=C(CSc1nc(C2CC2)nc2ccccc12)Nc1ccccc1N1CCOCC1,inactive: -3.03%,–
O=C(NC(=S)Nc1ccc(O)cc1)c1ccccc1Cl,–,"inconclusive [activator, partial curve]"
Cc1cc(C)n2c(SCC(=O)NC3CCCCC3)nnc2n1,inactive: -6.8%,–
Cc1ccsc1/C=C1/C(=O)NN(c2ccccc2)C1=O,–,"inconclusive [activator, single point]"
Cc1ccsc1/C=N/NC(=O)c1cccs1,–,"inconclusive [activator, partial curve]"
Cc1cnc(NC(=O)c2ccc(-c3nc4ccccc4s3)o2)s1,inactive: 29.8%,–
CCC1(CC)Nc2ccccc2C(=O)N1c1ccc(OC)cc1,–,active: 2 µM
Cc1ccccc1C(=O)N1CCC(C(=O)NC2CCCC2)CC1,inactive: 1.37%,–
CS(=O)(=O)N1CCN(c2ccccc2NC(=O)c2ccc([N+](=O)[O-])o2)CC1,inactive: -6.58%,–
COc1ccc(CN2C(=NC(=O)C3CCCO3)SC3CS(=O)(=O)CC32)cc1 (stereo not given),inactive: 0.904%,–
COc1ccc(-c2nnc(SCc3ccccc3)n2N)cc1,–,"inconclusive [activator, single point]"
Cc1ccc(C2=NN=C(NC(=O)C(F)(F)F)SC2)cc1,–,active: 1.41 µM
CCN1CCN(C(=O)c2cc3c(OC)c(OC)c(OC)cc3[nH]2)CC1,inactive: -0.0573%,–
CC(=O)Nc1ccc(NC(=O)COc2ccc(Br)cc2C)cc1,inactive: 1.97%,–
Cc1ccccc1-c1cc(C(=O)Nc2sc(C(=O)OC(C)C)c(C)c2C#N)c2ccccc2n1,inactive: 14.7%,–
COCc1cc(C)nc(SCC(=O)Nc2ccc(C)c(C)c2)c1C#N,–,"inconclusive [activator, single point]"
CN(C)c1ccc(-c2noc(-c3ccccc3O)n2)cc1,–,active: 0.708 µM
